# Measurements as given in PubChem BioAssay AID504332 (National Center for Advancing Translational Sciences (NCATS), 2011).
# The whole screen tested about 350,000 compounds, of which about 31,000 (8.9%) were called active. Inconclusive results, whose numbers are uncertain, are shown with a selection of clear calls. The call rests on the fitted dose curve; in most records, active means well fitted inhibition curve with a large enough effect; inconclusive means small, poorly fitted or top-dose-only effect; inactive means no such curve, though single readings can be large or run the other way. A potency beside an inconclusive call is a rough fit, not a confirmed value.
# Target: Histone-lysine N-methyltransferase EHMT2 (Homo sapiens) (UniProt Q96KQ7)
# Sequence of UniProt Q96KQ7 (Q96KQ7 whole entry, looked up): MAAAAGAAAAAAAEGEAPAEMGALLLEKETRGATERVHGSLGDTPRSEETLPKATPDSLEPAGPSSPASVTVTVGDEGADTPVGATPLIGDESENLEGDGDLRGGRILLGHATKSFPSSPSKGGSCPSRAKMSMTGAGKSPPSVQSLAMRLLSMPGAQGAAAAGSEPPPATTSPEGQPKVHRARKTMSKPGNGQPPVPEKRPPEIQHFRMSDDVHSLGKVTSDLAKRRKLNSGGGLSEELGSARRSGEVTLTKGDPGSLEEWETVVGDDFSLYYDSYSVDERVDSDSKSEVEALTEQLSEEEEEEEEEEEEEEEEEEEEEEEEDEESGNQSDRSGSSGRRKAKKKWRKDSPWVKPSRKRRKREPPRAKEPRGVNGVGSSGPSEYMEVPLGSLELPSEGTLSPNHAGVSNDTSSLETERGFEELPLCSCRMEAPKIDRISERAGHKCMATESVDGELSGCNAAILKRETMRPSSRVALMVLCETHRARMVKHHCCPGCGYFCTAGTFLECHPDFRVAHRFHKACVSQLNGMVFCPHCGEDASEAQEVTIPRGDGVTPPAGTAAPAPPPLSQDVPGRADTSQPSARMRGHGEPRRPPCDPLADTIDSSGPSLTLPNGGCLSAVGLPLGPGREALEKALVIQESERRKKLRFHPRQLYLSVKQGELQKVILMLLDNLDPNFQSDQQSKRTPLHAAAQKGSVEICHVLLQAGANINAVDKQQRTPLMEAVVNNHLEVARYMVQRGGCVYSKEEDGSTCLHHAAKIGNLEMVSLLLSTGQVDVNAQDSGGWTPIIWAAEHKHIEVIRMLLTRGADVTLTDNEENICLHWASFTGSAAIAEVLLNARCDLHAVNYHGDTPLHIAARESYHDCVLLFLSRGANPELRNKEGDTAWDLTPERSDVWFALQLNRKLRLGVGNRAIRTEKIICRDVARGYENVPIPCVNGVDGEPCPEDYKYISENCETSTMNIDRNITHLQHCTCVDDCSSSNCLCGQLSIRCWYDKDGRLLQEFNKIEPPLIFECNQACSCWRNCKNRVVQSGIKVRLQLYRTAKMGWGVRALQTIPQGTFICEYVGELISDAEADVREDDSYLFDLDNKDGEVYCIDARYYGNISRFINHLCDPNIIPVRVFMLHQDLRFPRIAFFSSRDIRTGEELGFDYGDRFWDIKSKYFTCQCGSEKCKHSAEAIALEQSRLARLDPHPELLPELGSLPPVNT
# Test: qHTS Assay for Inhibitors of Histone Lysine Methyltransferase G9a; further: nearly all actives have a fitted effect of over 75% in size
# Details: G9a H3K9 monomethylation, AlphaScreen, 2 h; activity, negative = inhibition: at 59 µM (top of the series) unless noted
# Procedure, shortened: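 Chemiluminescent proximity detection of H3K9 monomethylation, read after 10 min bead incubation in the dark. Reaction: 20 nM G9a, 500 nM biotin-H3K9 peptide, 20 uM SAM cofactor, 2 h, room temperature, following 15 min enzyme-compound preincubation.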
# On the % scale 0 is the no-effect control and ±100 the full control effect; potency means the concentration at half of the fitted maximal effect; tags describe the fitted curve by direction and shape.
Structure (SMILES),Potency,"activity, negative = inhibition"
CCOC(=O)N1CCN(Cc2cc(=O)oc3cc4c(cc23)CCC4)CC1,"inconclusive: 35.5 µM [inhibitor, single point]",
COc1ccc(N=C(c2ccccc2)c2c(C)[nH]n(-c3ccccc3)c2=O)c(OC)c1,"inconclusive: 28.2 µM [inhibitor, partial curve]",
Cc1cc2c(NC(=O)Nc3ccc(F)cc3)cccc2nn1,active: 50.1 µM,
CCOC(=O)/C(=C\c1cccc(O)c1)c1nc2sc(C)c(C)c2c(=O)[nH]1,active: 3.16 µM,
O=C(Nc1cccc(S(=O)(=O)Nc2ccc(Cl)cc2)c1)c1ccccn1,"inconclusive: 2.82 µM [inhibitor, partial curve, poor fit]",
Cc1cc(C=NCCCO)c(C)n1-c1cc(Cl)ccc1Cl,"inconclusive: 39.8 µM [inhibitor, partial curve, poor fit]",
O=C(c1ccc(Cl)cc1Cl)N1CCC(c2nc3c(nnn3Cc3ccco3)c(=O)[nH]2)CC1,active: 44.7 µM,
Cc1ccc2[nH]c(C(=O)O)c(NC(=O)CN3CCN(c4cccc(C)c4C)CC3)c2c1,"inconclusive: 79.4 µM [inhibitor, partial curve, poor fit]",
O=C(CC(Nc1cccc(Cl)c1Cl)C(=O)O)c1ccccc1 (stereo not drawn),active: 28.2 µM,
Cc1ccc(NC(=O)C2CCN(c3ncccn3)CC2)cc1F,,inactive: -5.43%
COc1ccc(CNC(=O)c2csnn2)cc1,"inconclusive: 39.8 µM [inhibitor, single point]",
COC1=NS(=O)(=O)c2ccccc21,"inconclusive: 3.98 µM [inhibitor, full curve, poor fit]",
Cc1ccc(CCNC(=O)c2ccc(Cn3c(=O)c4cccn4c4cccnc43)cc2)cc1,,inactive: 6.22%
Cc1nc2sc(C(=O)c3ccccc3)c(N)c2c2c1CCCC2,"inconclusive: 79.4 µM [inhibitor, single point]",
CN1CCN(CCCNC(=O)c2ccc3c(c2)N(Cc2ccccc2)CCS3)CC1,active: 79.4 µM,
O=C(NCCc1cccc(F)c1)/C(=C/c1cccnc1)NC(=O)c1ccccc1,,inactive: 7.73% [at 102 µM]
Cc1ccc(C)c(OCC(O)CN2CCN(CCN3C(=O)c4cccc5cccc(c45)C3=O)CC2)c1 (stereo not drawn),"inconclusive: 22.4 µM [inhibitor, single point]",
O=C(O)c1ccc(NC(=O)c2ccc(Cl)cc2)c(NC(=O)c2ccc(Cl)cc2)c1,"inconclusive: 89.1 µM [inhibitor, single point]",
O=C(Nc1ccc2c(c1)OCCO2)NC1(C(F)(F)F)Oc2ccccc2O1,active: 2 µM,
Cn1cccc1C(=O)N1CCC[C@@]2(CCN(Cc3ccccc3)C2)C1,,inactive: 8.05% [at 12.7 µM]
O=C(/C=C/c1ccccn1)c1cc(Cl)cc(Cl)c1O,active: 50.1 µM,
Cc1ccc[n+](-c2[nH]c(=O)sc2/C=N/N=C(\[O-])c2cccnc2)c1,"inconclusive: 70.8 µM [inhibitor, single point]",
O=C(CCS(=O)(=O)Cc1ccccc1)N1CCN(Cc2ccccc2)CC1,active: 50.1 µM,
CCCn1ncc(C(=O)NC2CCCN(Cc3ccc(Cl)cc3)C2)c1C (stereo not drawn),,inactive: 1.45% [at 102 µM]
Cc1cc(C)cc(NC(=O)CSCc2cc(=O)n3ccsc3n2)c1,"inconclusive: 89.1 µM [inhibitor, single point]",

Structure (SMILES),Potency,"activity, negative = inhibition"
CCCCCCCCC1=NCCc2c1[nH]c1ccccc21,active: 44.7 µM,
CCc1ccc(OCC(=O)N/N=C2\CC(=O)c3ccccc32)cc1,active: 12.6 µM,
C=CCNC(=O)CC1Nc2c3ccccc3nc(=S)n2C1=O (stereo not drawn),active: 35.5 µM,
CCN(Cc1ccccc1)Cc1c(F)cccc1F,"inconclusive: 25.1 µM [inhibitor, single point]",
CNc1ccccc1C(C)(C)c1cc(-c2cccc(OC)c2)no1,active: 1.58 µM,
CCOC(=O)C1CCN(c2nc3c(C)cccn3c(=O)c2/C=C(\C#N)S(=O)(=O)c2ccccc2)CC1,"inconclusive: 79.4 µM [inhibitor, partial curve, poor fit]",
Cc1ccc(Cl)cc1N1CCN(C(=O)c2cnn(-c3ccc(Cl)cc3)c2C2CCNCC2)CC1,active: 8.91 µM,
COc1ccc(C(CNC(=O)c2ccc(NS(=O)(=O)c3ccc4c(c3)OCCO4)cc2)N(C)C)cc1 (stereo not drawn),"inconclusive: 28.2 µM [inhibitor, partial curve, poor fit]",
CCN(CC)C(=O)CC(c1ccc(F)cc1)c1ccc(OC(C)C)cc1 (stereo not drawn),,inactive: 26.4%
CCOc1ccc2nc(SCC(=O)Nc3ccc4c(c3)OCCO4)[nH]c2c1,,inactive: 4.96% [at 12.7 µM]
NC(=O)c1c(NC(=O)Cn2cnc([N+](=O)[O-])n2)sc2c1CCCC2,"inconclusive: 79.4 µM [inhibitor, single point]",
COc1ccc(N2CCN(S(=O)(=O)c3c(C)nc4sccn4c3=O)CC2)cc1,,inactive: -26.4% [at 102 µM]
O=C1c2ccccc2C(=O)c2c1ccc(C(=O)N1CCCCC1)c2NCCO,,inactive: 18.3%
CC/C=C\C/C=C\C/C=C\C/C=C\C/C=C\CCCC(=O)O,,inactive: 12.6%
O=C(COC(=O)CC1CCCC1)Nc1cc2c(cc1Cl)C(=O)c1ccccc1C2=O,"inconclusive: 89.1 µM [inhibitor, single point]",
CC1CCN(C(=O)Oc2ccccc2)CC1,,inactive: 8.66% [at 102 µM]
COc1ccc([N+](=O)[O-])c(OC)c1C(=O)NC(=O)Nc1c(F)c(F)c(F)c(F)c1F,,inactive: 18.6% [at 102 µM]
CCCCn1c(N)c(N(CC(C)C)C(=O)CSCC(=O)Nc2cccc(C)c2)c(=O)[nH]c1=O,,inactive: -10.8% [at 102 µM]
COc1cn(CC(=O)Nc2ccc(C)cc2C)c(CN2CCCCC2)cc1=O,,inactive: -3.37%
O=C(Nc1ccc[n+](CC(=O)c2cccc3ccccc23)c1)c1ccccc1,active: 39.8 µM,
O=C(Nc1ccccc1-c1ccccc1)c1cccc([N+](=O)[O-])c1,,inactive: 10.9% [at 12.7 µM]
CCOc1ccc(NC(=O)C2CCN(S(=O)(=O)c3ccc4c(c3)CC(C)N4C(C)=O)CC2)cc1 (stereo not drawn),,inactive: 24%
CC(=O)N1CCN(S(=O)(=O)c2cccc(C(=O)NNC(=O)Cn3nc(C)cc3C)c2)CC1,"inconclusive: 3.98 µM [inhibitor, single point]",
COc1cnc(SCc2ccc(Cl)cc2)nc1Cl,,inactive: 6.01% [at 12.7 µM]
FC(F)(F)c1cccc(NC(=S)N(CCCN2CCCC2)Cc2cccn2Cc2ccc(Cl)cc2)c1,active: 44.7 µM,

Structure (SMILES),Potency,"activity, negative = inhibition"
Cc1cccc(COC[C@H](Cc2ccccc2)N2CCN(C(=O)c3cccc(Cl)c3)CCC2=O)c1,"inconclusive: 3.16 µM [inhibitor, partial curve, poor fit]",
COc1ccc(CN2CCC(C(=O)N(C)CCc3ccc(OC)c(OC)c3)CC2)c(OC)c1,active: 10 µM,
O=C(c1cc(S(=O)(=O)N2CCN(c3ccccc3)CC2)ccc1Cl)N1CCCCCCC1,"inconclusive: 39.8 µM [inhibitor, partial curve, poor fit]",
CC(=O)c1ccc(NC(=O)/C=C/c2ccc(C)o2)cc1,active: 11.2 µM,
Cc1c(C)n(CC(O)CN2CCCCC2)c2ccccc12 (stereo not drawn),,inconclusive: -77.4% [inhibitor]
Cc1cc(C)c(NC(=O)Cn2nnc(-c3nc(-c4ccncc4)no3)c2N)c(C)c1,"inconclusive: 8.91 µM [inhibitor, partial curve, poor fit]",
C/C(=N\NC(=O)c1ccccc1)c1nc2ccccc2n1C,"inconclusive: 35.5 µM [inhibitor, single point]",
COC(=O)c1cc2n3ccccc3c(C)c(-c3ccccc3)c-2c1C(=O)OC,active: 44.7 µM,
Cc1cc(C)c([N+](=O)[O-])cc1-c1ccc(/C=N/c2c(-c3ccco3)nc3ccccn23)o1,,inactive: 17.1% [at 0.501 µM]
O=C(c1ccccc1NS(=O)(=O)c1ccccc1[N+](=O)[O-])N1CCOCC1,,inactive: -10.1%
Cc1sc(NC(=O)c2ccccc2)c(C(=O)N2CCN(C)CC2)c1C,,inactive: 4.09% [at 12.7 µM]
NC(=O)C(CC(=O)O)NC(=O)[C@@H]1CCCCNc2c(I)cc([N+](=O)[O-])cc2C(=O)N[C@@H](CO)C(=O)NCC(=O)N1 (stereo partly drawn),active: 28.2 µM,
CN1CCN(CC(=O)NC23CC4CC(CC(C4)C2)C3)CC1,"inconclusive: 79.4 µM [inhibitor, partial curve]",
Fc1ccc(C2NCCn3cccc32)cc1 (stereo not drawn),"inconclusive: 14.1 µM [inhibitor, partial curve]",
O=C(c1ccccc1)c1n[nH]c(-c2ccccc2)cc1=O,"inconclusive: 89.1 µM [inhibitor, partial curve, poor fit]",
C=CCn1c(SCC(=O)NC)nnc1C12CC3CC(CC(C3)C1)C2,,inactive: 5.32% [at 102 µM]
Cc1onc(-c2ccccc2)c1NC(=O)Nc1ccc(OC(F)F)cc1,"inconclusive: 0.282 µM [inhibitor, full curve, poor fit]",
Cc1ccc(S(=O)(=O)NN2Cc3ccccc3C2=N)cc1,active: 15.8 µM,
Cc1c(N2C(=O)CSC23C(=O)Nc2ccccc23)c(=O)n(-c2ccccc2)n1C (stereo not drawn),,inactive: 0.324%
COc1cccc(Cn2cc(-c3cccc(C(F)(F)F)c3)nn2)c1,"inconclusive: 3.16 µM [inhibitor, full curve, poor fit]",
CCOC(=O)c1ccc(NC(=O)CN2CCN(C(=O)C3CCCO3)CC2)cc1 (stereo not drawn),,inactive: 3.79% [at 102 µM]
O=C(CC1C(=O)NCCN1Cc1cccc(F)c1)NC1CCCCCC1 (stereo not drawn),"inconclusive: 89.1 µM [inhibitor, single point]",
CC(C)Oc1cccc(C(=O)NC(=S)Nc2ccccc2)c1,"inconclusive: 5.01 µM [inhibitor, full curve, poor fit]",
